Measurements published in publication PMC8259415.
Positions count from the first letter of the chain named. Results are given in words; binding and its absence hold for the method and conditions named. For some assays here: In cells and extracts the contact can be indirect. Some entries that bind do so weakly or less than the wild type.

Experiments:
[1] = target: T1, Abl2 Src homology 2 (SH2) domain (UniProt Q4JIM5); experiment: pull-down; Abl2 SH2 domain covalently coupled to AminoLink agarose beads (1 μM) incubated overnight with 500 μg HEK293 lysate (RIPA buffer) expressing PDGFRβ, cells serum starved and stimulated with PDGF-BB for 10 min or mock treated; bound material immunoblotted for PDGFRβ; only the target …
T1 sequence: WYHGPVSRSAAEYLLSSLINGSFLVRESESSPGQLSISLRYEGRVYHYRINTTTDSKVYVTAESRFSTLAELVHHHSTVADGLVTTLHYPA

[2] = target: T1, Abl2 Src homology 2 (SH2) domain; experiment: pull-down; Abl2 SH2 covalently linked to AminoLink beads, 1 μM; 0 to 2 μM PDGFRβ CD; 1 h at 4 °C; 50 mM Hepes pH 7.25, 150 mM NaCl, 5% glycerol, 1 mM DTT; SDS-PAGE, Coomassie densitometry, one-site specific binding fit; both purified
[3] = target: T2, Abl2 SH2 domain R198K (phosphotyrosine-binding defective mutant) (UniProt Q4JIM5); experiment: as above
T2 sequence: T1 sequence with R26K

[4] = target: Abl2-HA (hemagglutinin tag), WT (UniProt Q4JIM5); experiment: co-IP; Abl2-HA immunoprecipitated with anti-HA (12CA5) from 0.5 mg lysate (Triton lysis buffer) of HEK293 cells co-expressing PDGFRβ, serum starved and stimulated with PDGF-BB; blotted for PDGFRβ

Substance: PDGFRβ Y716F, full length (from UniProt P09619 33-1106) (receptor)
- binding [1]: binds

Substance: autophosphorylated PDGFRβ CD (Y771F) (from UniProt P09619 554-1106) (domain or fragment)
- binding [2]: binds weakly

Substance: autophosphorylated PDGFRβ cytoplasmic domain (CD) (from UniProt P09619 554-1106) (domain or fragment)
- binding [3]: no binding (tested: 0 to 2 μM)

Substance: kinase-inactive PDGFRβ point mutant (K634R), full length (from UniProt P09619 33-1106) (receptor)
- binding [4]: no binding
- binding [1]: no binding
